Source: the supplement of paper PMC4604168 (melanoma cell lines)
The list shows a part of the results. Most values come without repeats; read them as rough.

Assays:
Assay in all cases: cell count relative to DMSO control; melanoma cells; higher = more viable cells
Settings in all cases: library dose: low library concentration; 72 h
[1] = tested on: WM115
[2] = tested on: WM1716
[3] = tested on: WM1745
[4] = tested on: WM3526
[5] = tested on: WM3619
[6] = tested on: WM451Lu
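Note: cell number obtained by counting DAPI-stained nuclei in high-throughput microscope images with image analysis software, screen run in 1,536-well plates.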

| Structure (SMILES) | cell count [1] [%] | cell count [2] [%] | cell count [3] [%] | cell count [4] [%] | cell count [5] [%] | cell count [6] [%] |
| --- | --- | --- | --- | --- | --- | --- |
| Nc1ccn([C@@H]2O[C@H](CO)[C@@H](O)C2(F)F)c(=O)n1 [gemcitabine] + CC(C)CCN1c2nc(Nc3cc(F)c(O)c(F)c3)ncc2N(C)C(=O)C1C [BID1870] (first compound 0.0004 µM, partner dose 0.2 µM) | 107 | 98.9 | 63.7 | 88.9 | 68.1 | 110 |
| CC(=O)c1c(C)c2cnc(Nc3ccc(N4CCNCC4)cn3)nc2n(C2CCCC2)c1=O [palbociclib] + CCc1ccc(CCOc2ccc(CC3SC(=O)NC3=O)cc2)nc1 [pioglitazone] (first compound 0.04 µM, partner dose 2 µM) | 69.9 | 54.7 | 82.7 | 68.3 | 79.5 | 70.4 |
| Nc1nc(F)nc2c1ncn2[C@@H]1O[C@H](CO)[C@@H](O)[C@@H]1O [fludarabine] + COc1ccc2c(c1)CCC1C2CCC2(C)C(NCCCCCCN3C(=O)C=CC3=O)CCC12 [U73122] (first compound 0.2 µM, partner dose 0.4 µM) | 96.5 | 81.7 | 107 | 28.7 | 99.9 | 42.5 |
| Nc1ncn([C@H]2C[C@H](O)[C@@H](CO)O2)c(=O)n1 [decitabine] + CC(C)CCN1c2nc(Nc3cc(F)c(O)c(F)c3)ncc2N(C)C(=O)C1C [BID1870] (first compound 0.1 µM, partner dose 0.2 µM) | 88.5 | 58.1 | 106 | 93.3 | 61.3 | 107 |
| CC(=O)c1c(C)c2cnc(Nc3ccc(N4CCNCC4)cn3)nc2n(C2CCCC2)c1=O [palbociclib] + CC(C)CCN1c2nc(Nc3cc(F)c(O)c(F)c3)ncc2N(C)C(=O)C1C [BID1870] (first compound 0.04 µM, partner dose 0.2 µM) | 67.4 | 63.3 | 80.5 | 48.9 | 67.6 | 77.2 |
| Nc1ncn([C@H]2C[C@H](O)[C@@H](CO)O2)c(=O)n1 [decitabine] + OCCn1cc(-c2cnc3nnn(Cc4ccc5ncccc5c4)c3n2)cn1 [PF04217903] (first compound 0.1 µM, partner dose 1 µM) | 88.2 | 78.2 | 133 | 107 | 142 | 117 |
| CC(=O)c1c(C)c2cnc(Nc3ccc(N4CCNCC4)cn3)nc2n(C2CCCC2)c1=O [palbociclib] + Cc1cc(N2CCOCC2)cc2[nH]c(-c3c(NC[C@@H](O)c4cccc(Cl)c4)cc[nH]c3=O)nc12 [BMS536924] (first compound 0.04 µM, partner dose 0.2 µM) | 79.6 | 54 | 56.9 | 57.7 | 62 | 74.3 |
| CO[C@H]1C[C@@H]2CC[C@@H](C)[C@@](O)(O2)C(=O)C(=O)N2CCCC[C@H]2C(=O)O[C@H]([C@H](C)C[C@@H]2CC[C@@H](OCCO)[C@H](OC)C2)CC(=O)[C@H](C)/C=C(\C)[C@@H](O)[C@@H](OC)C(=O)[C@H](C)C[C@H](C)/C=C/C=C/C=C/1C [everolimus] + Nc1nc(F)nc2c1ncn2[C@@H]1O[C@H](CO)[C@@H](O)[C@@H]1O [fludarabine] (first compound 0.02 µM, partner dose 0.2 µM) | 77.1 | 69.1 | 91.7 | 25.4 | 81.8 | 42.4 |
| Nc1ncn([C@H]2C[C@H](O)[C@@H](CO)O2)c(=O)n1 [decitabine] + Cn1nnc2c(C(N)=O)ncn2c1=O [temozolomide] (first compound 0.1 µM, partner dose 2 µM) | 90.7 | 90.1 | 123 | 126 | 66.9 | 95.3 |
| CC(=O)O[C@@]12CO[C@@H]1C[C@H](O)[C@@]1(C)C(=O)[C@H](O)C3=C(C)[C@@H](OC(=O)[C@H](O)[C@@H](NC(=O)OC(C)(C)C)c4ccccc4)C[C@@](O)([C@@H](OC(=O)c4ccccc4)[C@H]21)C3(C)C [Docetaxel] + O=C(Nc1ccccc1)c1cc([N+](=O)[O-])ccc1Cl [GW9662] (first compound 0.0001 µM, partner dose 2 µM) | 61.8 | 42.3 | 55.2 | 45.4 | 53.7 | 50.6 |
| CC(=O)c1c(C)c2cnc(Nc3ccc(N4CCNCC4)cn3)nc2n(C2CCCC2)c1=O [palbociclib] + COc1cc2c(Oc3ccc4[nH]c(C)cc4c3F)ncnc2cc1OCCCN1CCCC1 [cediranib] (first compound 0.04 µM, partner dose 0.4 µM) | 74.9 | 64 | 63.4 | 61.3 | 86.3 | 93.9 |
| Nc1ccn([C@@H]2O[C@H](CO)[C@@H](O)C2(F)F)c(=O)n1 [gemcitabine] + COc1ccc2c(c1)CCC1C2CCC2(C)C(NCCCCCCN3C(=O)C=CC3=O)CCC12 [U73122] (first compound 0.0004 µM, partner dose 0.4 µM) | 104 | 101 | 70.4 | 79.7 | 65 | 94.2 |
| Nc1ncn([C@H]2C[C@H](O)[C@@H](CO)O2)c(=O)n1 [decitabine] + C#Cc1cccc(Nc2ncnc3cc(OCCOC)c(OCCOC)cc23)c1 [erlotinib] (first compound 0.1 µM, partner dose 0.8 µM) | 78.5 | 82 | 89 | 95.3 | 81.1 | 102 |
| Nc1ccn([C@@H]2O[C@H](CO)[C@@H](O)C2(F)F)c(=O)n1 [gemcitabine] + Clc1ccc(Nc2nnc(Cc3ccncc3)c3ccccc23)cc1 [vatalanib] (first compound 0.0004 µM, partner dose 2 µM) | 88.8 | 73.4 | 60.3 | 85.8 | 50.9 | 95.1 |
| CC(=O)O[C@@]12CO[C@@H]1C[C@H](O)[C@@]1(C)C(=O)[C@H](O)C3=C(C)[C@@H](OC(=O)[C@H](O)[C@@H](NC(=O)OC(C)(C)C)c4ccccc4)C[C@@](O)([C@@H](OC(=O)c4ccccc4)[C@H]21)C3(C)C [Docetaxel] + O=c1cc(-c2cccc3c2Sc2ccccc2S3)oc(N2CCOCC2)c1 [KU55933] (first compound 0.0001 µM, partner dose 1 µM) | 60.1 | 36.2 | 52.6 | 33.7 | 60.6 | 56.3 |
| Nc1nc(F)nc2c1ncn2[C@@H]1O[C@H](CO)[C@@H](O)[C@@H]1O [fludarabine] + COc1ccc(Cl)c(Nc2nc3ccccc3nc2NS(=O)(=O)c2cccc(NC(=O)C(C)(C)N)c2)c1 [XL147] (first compound 0.2 µM, partner dose 0.8 µM) | 90.3 | 93.1 | 119 | 29.1 | 106 | 46.5 |
| CC(=O)O[C@@]12CO[C@@H]1C[C@H](O)[C@@]1(C)C(=O)[C@H](O)C3=C(C)[C@@H](OC(=O)[C@H](O)[C@@H](NC(=O)OC(C)(C)C)c4ccccc4)C[C@@](O)([C@@H](OC(=O)c4ccccc4)[C@H]21)C3(C)C [Docetaxel] + O=C(Nc1cccc(Cl)c1)Nc1ncc(CCNc2ncnc3ccsc23)s1 [SNS314] (first compound 0.0001 µM, partner dose 0.0008 µM) | 47.5 | 32.6 | 43.4 | 47.3 | 67.4 | 61.7 |
| CO[C@H]1C[C@@H]2CC[C@@H](C)[C@@](O)(O2)C(=O)C(=O)N2CCCC[C@H]2C(=O)O[C@H]([C@H](C)C[C@@H]2CC[C@@H](OCCO)[C@H](OC)C2)CC(=O)[C@H](C)/C=C(\C)[C@@H](O)[C@@H](OC)C(=O)[C@H](C)C[C@H](C)/C=C/C=C/C=C/1C [everolimus] + COc1ccc(-c2ccc3c(N4CCOCC4)nc(N4C[C@@H](C)O[C@@H](C)C4)nc3n2)cc1CO [KU0063794] (first compound 0.02 µM, partner dose 0.02 µM) | 75.9 | 70.7 | 94.7 | 54.8 | 66.6 | 89.5 |
| CC(=O)O[C@@]12CO[C@@H]1C[C@H](O)[C@@]1(C)C(=O)[C@H](O)C3=C(C)[C@@H](OC(=O)[C@H](O)[C@@H](NC(=O)OC(C)(C)C)c4ccccc4)C[C@@](O)([C@@H](OC(=O)c4ccccc4)[C@H]21)C3(C)C [Docetaxel] + Cc1nc(Nc2ncc(C(=O)Nc3c(C)cccc3Cl)s2)cc(N2CCN(CCO)CC2)n1 [dasatanib] (first compound 0.0001 µM, partner dose 0.004 µM) | 57.8 | 32.5 | 41 | 46.3 | 65.6 | 62.1 |
| Nc1ncn([C@H]2C[C@H](O)[C@@H](CO)O2)c(=O)n1 [decitabine] + Clc1ccc(Nc2nnc(Cc3ccncc3)c3ccccc23)cc1 [vatalanib] (first compound 0.1 µM, partner dose 2 µM) | 82.2 | 77.2 | 73.4 | 88.4 | 88 | 87.5 |
| Nc1ccn([C@@H]2O[C@H](CO)[C@@H](O)C2(F)F)c(=O)n1 [gemcitabine] + COC(=O)c1sccc1S(=O)(=O)Nc1ccc(Nc2ccccc2)cc1OC [GSK0660] (first compound 0.0004 µM, partner dose 1 µM) | 93.6 | 123 | 70.6 | 90.3 | 64.6 | 91.7 |
| CO[C@H]1C[C@@H]2CC[C@@H](C)[C@@](O)(O2)C(=O)C(=O)N2CCCC[C@H]2C(=O)O[C@H]([C@H](C)C[C@@H]2CC[C@@H](OCCO)[C@H](OC)C2)CC(=O)[C@H](C)/C=C(\C)[C@@H](O)[C@@H](OC)C(=O)[C@H](C)C[C@H](C)/C=C/C=C/C=C/1C [everolimus] + O=C(O)c1ccc(-c2c[nH]c3ncc(-c4ccccc4)cc23)cc1C1CCCC1 [GSK650394] (first compound 0.02 µM, partner dose 0.16 µM) | 82 | 80.6 | 102 | 86.9 | 81.7 | 85.4 |
